Out of some 420,000 compounds screened, about 64,000 (15%) were called active. This list was built around the results that the source calls inconclusive (neither active nor inactive); the mix of calls is not that of the screen. The call rests on the fitted dose curve; in most records, active means well fitted inhibition curve with a large enough effect; inconclusive means small, poorly fitted or top-dose-only effect; inactive means flat fitted curve, though single readings scatter. No potency is given beside an inconclusive call; the fits are too rough.
experiment: qHTS for Inhibitors of human tyrosyl-DNA phosphodiesterase 1 (TDP1): qHTS in cells in absence of CPT; details: DT40 Tdp1-/- hTDP1 cells, no CPT, ATP luminescence, 48 h; activity change, negative = growth inhibition: at 46.2 µM (top of the series) unless noted; further: nearly all actives have a fitted effect of over 55% in size
Outline: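 Readout: luminescence from CellTiter-Glo after 30 min in the dark at RT. Cells: DT40 Tdp1-/- with stable hTDP1, 400/well. Exposure: compounds alone, ≥48 hr, 37 °C.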
On the % scale 0 is the no-effect control and ±100 the full control effect; potency means the concentration at half of the fitted maximal effect; tags describe the fitted curve by direction and shape.

Which Potency does the source give for `CC1CCC(NC(=O)c2cc(C3CC3)nn2-c2ccccc2)CC1` (centres undefined) here?
Its Potency is inconclusive [inhibitor, single point].

For `Cn1c(=O)n(C)c2cc(NC(=O)c3cccc([N+](=O)[O-])c3)c(Br)cc21`, which Potency is on record?
Its Potency is “inactive”.

Which Potency does the source give for `FC(F)(F)c1cc(CCN2CCNC[C@@H]2c2ccccc2)cc(C(F)(F)F)c1` here?
Its Potency is inconclusive [inhibitor, single point].

With `CCN1CCN(c2cc(C)c3cc(NC(=S)N4CC(C)CC(C)C4)ccc3n2)CC1` (centres undefined) as the compound, how does the Potency read?
The Potency was inconclusive [inhibitor, single point].

For `COc1nnc(-c2ccc(N3CCOCC3)c(NC(=O)c3ccco3)c2)c2ccccc12`, which Potency is on record?
Its Potency is active: 25.9 µM.

For `O=C(Nc1nc2cc3c(cc2s1)OCCO3)c1cccc(N2C(=O)CCC2=O)c1`, which Potency is on record?
Its Potency is inconclusive [inhibitor, single point].

With `CCc1ccccc1NC(=O)Cn1nnc(C(=O)Nc2ccc(C)c(F)c2)c1N` as the compound, how does the Potency read?
Its Potency is “inactive”.

Which Potency does the source give for `Cc1nn(CC(=O)NCc2ccc(OC(C)C)cc2)c(=O)c2c(C)n(-c3ccc(Cl)cc3)nc12` here?
The Potency was inconclusive [inhibitor, single point].

For `Cc1ccc(-c2nc3ccc(C)cn3c2Cc2ccccc2C(F)(F)F)cc1`, which Potency is on record?
Its Potency is inconclusive [inhibitor, single point].

Which Potency does the source give for `O=C(Nc1ccc(N2CCOCC2)cc1)c1cc2c(s1)CCCC2` here?
The Potency was inconclusive [inhibitor, single point].

For `COc1ccc(NC(=S)N(CCCN2CCCC(C)C2)Cc2cccs2)cc1` (centres undefined), which Potency is on record?
Its Potency is active: 29.1 µM.

With `CCn1ccnc1CN1CCc2c([nH]c3ccccc23)C1C(C)(C)C` (centres undefined) as the compound, how does the Potency read?
Its Potency is inconclusive [inhibitor, single point].

Which Potency does the source give for `COC(=O)N1CCC2(CCN(Cc3ccccc3)CC2)CC1` here?
Its Potency is “inactive”.

Which Potency does the source give for `COc1ccc(C2=NN3C(C2)c2ccccc2OC32C(=O)N(C)c3ccccc32)cc1` (centres undefined) here?
Its Potency is active: 20.6 µM.

For `CCCCCOc1ccc(C2c3c(oc4ccccc4c3=O)C(=O)N2c2nc(C)c(C)s2)cc1OCC` (centres undefined), which Potency is on record?
Its Potency is “inactive”.

With `O=C(CSc1nnc(COc2cccc3ccccc23)o1)N1c2ccccc2CCc2ccccc21` as the compound, how does the Potency read?
The Potency was inconclusive [inhibitor, single point].

With `CC(C)(C)c1ccc(C(=O)OCC(=O)NCc2ccco2)cc1` as the compound, how does the Potency read?
Its Potency is inconclusive [inhibitor, single point].

With `CSc1ccc(CCNC(=O)Cn2ncc3c(=O)oc4ccc(C)cc4c32)cc1` as the compound, how does the Potency read?
Its Potency is “inactive”.

With `CCC(C)(C)C1CCc2[nH]nc(C(=O)NN)c2C1` (centres undefined) as the compound, how does the Potency read?
The Potency was inconclusive [inhibitor, partial curve, poor fit].

Which Potency does the source give for `O=C(Nc1ccccc1)NC1CCN(Cc2nnnn2C2CCCCC2)CC1` here?
Its Potency is inconclusive [inhibitor, full curve, poor fit].

With `CC1(C)CC2CC(C)(CN2C(=O)Cc2ccccc2)C1` (centres undefined) as the compound, how does the activity change, negative = growth inhibition read?
Its activity change, negative = growth inhibition is inconclusive: -30.5% [inhibitor].

With `CCOc1ccc(NS(=O)(=O)c2c(C(=O)N3CCCCCC3)c(C)n(C)c2C)cc1` as the compound, how does the Potency read?
Its Potency is inconclusive [inhibitor, partial curve].

Which Potency does the source give for `COc1ccc(C(=O)Nc2cccc(C(=O)N3CCCC3)c2)cc1` here?
Its Potency is inconclusive [inhibitor, single point].

For `COc1ccc(S(=O)(=O)c2c(SC)nn(Cc3ccccc3C)c2NC(C)=O)cc1`, which Potency is on record?
Its Potency is inconclusive [inhibitor, single point].

With `Cc1ccc(OCC(=O)Nc2cccc(-c3nnc(-c4ccccc4)o3)c2)cc1` as the compound, how does the Potency read?
Its Potency is active: 16.4 µM.

Which Potency does the source give for `Cc1cc(N2CCN(C)CC2)nc2ccc(NC(=S)N3CCN(c4ccc(Cl)cc4)CC3)cc12` here?
Its Potency is inconclusive [inhibitor, single point].

Which Potency does the source give for `O=C(Nc1ccc2c(c1)OCCO2)C(c1ccnc2ccccc12)N1CCN(C/C=C/c2ccccc2)CC1` (centres undefined) here?
The Potency was active: 23.1 µM.

Which Potency does the source give for `Cc1cccn2cc(COc3cccc([N+](=O)[O-])c3)nc12` here?
Its Potency is “inactive”.

With `CN(C)S(=O)(=O)c1cccc(NC(=O)c2ccc(Sc3nncn3C)c([N+](=O)[O-])c2)c1` as the compound, how does the Potency read?
Its Potency is “inactive”.

For `C=CCNC(=O)CSc1nnc(-c2cccc(S(=O)(=O)N3CCOCC3)c2)o1`, which Potency is on record?
The Potency was “inactive”.

Which Potency does the source give for `Cc1sc2nc(C3CC3)nc(SCC(=O)N3CCc4ccccc4C3)c2c1C` here?
Its Potency is active: 20.6 µM.

For `O=C(c1ccoc1)N1CCOc2ccc(CN3CCC(Oc4cccnc4)CC3)cc2C1`, which Potency is on record?
Its Potency is “inactive”.

Which Potency does the source give for `COc1ccc(C(C(=O)NC2CCCC2)N(C(=O)c2snc(C(N)=O)c2N)C2CCCC2)cc1OC` (centres undefined) here?
Its Potency is “inactive”.

For `CCOC(=O)N1CCN(C(=O)c2ccc(Cn3c(=S)[nH]c4cc5c(cc4c3=O)OCO5)cc2)CC1`, which Potency is on record?
The Potency was active: 16.4 µM.

Which Potency does the source give for `C=CC(=O)N1C/C=C\C(c2ccc(OC)cc2)N(Cc2ccc(F)cc2)C(=O)C1` (centres undefined) here?
Its Potency is “inactive”.

With `Cn1nc(C(=O)N2CCN(c3ccccc3)CC2)c2c1-c1ccccc1S(=O)(=O)C2` as the compound, how does the Potency read?
Its Potency is inconclusive [inhibitor, single point].

For `Cc1ccc(C)c(S(=O)(=O)N2CCC(c3nc4c(nnn4Cc4ccc(F)cc4)c(=O)[nH]3)CC2)c1`, which Potency is on record?
The Potency was inconclusive [inhibitor, partial curve].

Which Potency does the source give for `O=C(NC1CCCC1)c1ccc(COc2ccccc2Br)o1` here?
The Potency was inconclusive [inhibitor, single point].

With `CCOc1ccc(-n2c(-c3ccc(OC)cc3)c[n+]3c2CCCCC3)cc1` as the compound, how does the Potency read?
The Potency was active: 0.0291 µM.

Which Potency does the source give for `C[n+]1ccccc1/C=C/c1cc(Br)ccc1O` here?
Its Potency is “inactive”.

With `CCc1cccc(CC)c1N1C(=O)CSCC1=O` as the compound, how does the Potency read?
Its Potency is “inactive”.

With `O=C(c1ccc(C(F)(F)F)cc1)c1c[nH]c(C(=O)NCCCn2ccnc2)c1` as the compound, how does the Potency read?
The Potency was “inactive”.

For `CCc1nnc(NS(=O)(=O)c2ccc(NS(=O)(=O)c3ccccc3)cc2)s1`, which Potency is on record?
The Potency was “inactive”.

With `CC(NC(=O)CCc1nnc(-c2ccc(-c3ccccc3)cc2)o1)c1nccs1` (centres undefined) as the compound, how does the Potency read?
Its Potency is active: 20.6 µM.

For `COCCCN1CCc2[nH]c(=S)[nH]c(=O)c2C1`, which Potency is on record?
Its Potency is inconclusive [inhibitor, partial curve].

Which Potency does the source give for `CCOC(=O)N1CCN(CCC(=O)Nc2cccc(C)c2)CC1` here?
Its Potency is “inactive”.

With `CC(=O)Nc1ccc(S(=O)(=O)NC(CC(=O)N(C)Cc2ccccc2)C(C)C)cc1` (centres undefined) as the compound, how does the Potency read?
Its Potency is active: 23.1 µM.

Which Potency does the source give for `CCN(CC)S(=O)(=O)c1ccc(C(=O)N2CCN(C3=NS(=O)(=O)c4ccccc43)CC2)cc1` here?
Its Potency is “inactive”.

For `CC(c1ccco1)N(C(=O)Nc1ccc(Cl)cc1)c1ccccn1` (centres undefined), which activity change, negative = growth inhibition is on record?
Its activity change, negative = growth inhibition is inconclusive: -32% [inhibitor].

With `Cc1cc(NC(=O)CCC(=O)N(c2ccccc2)C(C(=O)NC2CCCC2)c2ccccc2C)no1` (centres undefined) as the compound, how does the Potency read?
Its Potency is inconclusive [inhibitor, single point].

Which Potency does the source give for `Cc1ccc2nc3c(cc(C(=O)NC4CCCCC4)c(=N)n3C3CCCCC3)c(=O)n2c1` here?
The Potency was active: 14.6 µM.

For `CC(=O)NNc1nc(-c2ccccc2)c2cc(Cl)ccc2n1`, which Potency is on record?
The Potency was “inactive”.

For `O=C(NCC(c1ccc(F)cc1)N1CCOCC1)c1ccco1` (centres undefined), which Potency is on record?
The Potency was “inactive”.

Which Potency does the source give for `Clc1ccc(OCCSc2ncccn2)c2ccccc12` here?
Its Potency is “inactive”.

Which Potency does the source give for `CCN(CC)CCCN=Cc1c(O)n(-c2cccc(C)c2)c(=O)c2ccccc12` here?
Its Potency is “inactive”.

For `COc1ccccc1NC(=O)Cc1cccc2ccccc12`, which Potency is on record?
Its Potency is inconclusive [inhibitor, single point].

For `COC(=O)c1ccc(OCCCCN2CC(C)OC(C)C2)cc1` (centres undefined), which activity change, negative = growth inhibition is on record?
Its activity change, negative = growth inhibition is inconclusive: -30.1% [inhibitor].

For `CCOC(=O)C1CCCN(C(=O)c2ccc3c(c2)N(Cc2ccccc2)C(=O)c2ccccc2S3=O)C1` (centres undefined), which Potency is on record?
Its Potency is active: 18.4 µM.

With `Cc1ccc2nc3c(cc2c1)c(NC(=O)c1ccccn1)nn3CC(C)C` as the compound, how does the Potency read?
The Potency was “inactive”.

With `COC(=O)c1ccccc1NC(=O)/C=C/c1ccco1` as the compound, how does the Potency read?
The Potency was inconclusive [inhibitor, single point].

For `CC(=O)N1c2ccc(S(=O)(=O)N3CCC(C(=O)NC(C)c4ccccc4)CC3)cc2CC1C` (centres undefined), which Potency is on record?
The Potency was “inactive”.

Which Potency does the source give for `Cc1ccccc1OCC(=O)N/N=C/c1ccc(N2CCOCC2)o1` here?
The Potency was inconclusive [inhibitor, single point].

For `Cc1ccc(S(=O)(=O)N2CCCCC2)cc1NC(=O)CCc1nc2ccccc2c(=O)[nH]1`, which Potency is on record?
Its Potency is inconclusive [inhibitor, single point].

Which Potency does the source give for `CCSc1nnc(-c2ccc(C)cc2)c2ccccc12` here?
Its Potency is active: 16.4 µM.

Which Potency does the source give for `Cc1noc(C)c1C(=O)OC(C)C(=O)N1CCc2ccccc21` (centres undefined) here?
Its Potency is inconclusive [inhibitor, single point].

With `COc1cccc(/C=N\NC(=O)c2sc(N)nc2C)c1OC` as the compound, how does the Potency read?
The Potency was inconclusive [inhibitor, single point].

For `O=C(NNC(=O)c1ccc(Oc2ccc(C3SCCS3)cc2)o1)c1ccc(Cl)cc1`, which Potency is on record?
The Potency was inconclusive [inhibitor, single point].

With `O=c1c2oc3ccccc3c2n(Cc2ccccc2)c(=O)n1Cc1ccc2c(c1)OCO2` as the compound, how does the Potency read?
The Potency was inconclusive [inhibitor, single point].

Which Potency does the source give for `CCOC(=O)c1cccc(Nc2ccc3cc(S(=O)(=O)N4CCCCC4)ccc3n2)c1` here?
The Potency was active: 20.6 µM.

Which Potency does the source give for `Cc1cccc(N(C)c2ncnc3onc(-c4ccc(F)cc4)c23)c1C` here?
Its Potency is active: 16.4 µM.

With `Cc1cc(C(=O)COc2cccc([N+](=O)[O-])c2)c(C)n1C1CC1` as the compound, how does the Potency read?
The Potency was inconclusive [inhibitor, single point].

For `Cc1ccc(-c2noc(-c3ccoc3C)n2)cc1`, which activity change, negative = growth inhibition is on record?
The activity change, negative = growth inhibition was inconclusive: -32.3% [inhibitor].

With `COc1cccc(CNC(=O)c2ccc(NC(=O)N3CCCCc4ccccc43)cc2)c1` as the compound, how does the Potency read?
Its Potency is active: 20.6 µM.

Which Potency does the source give for `O=C(Nc1cccc(C(=O)N2CCOCC2)c1)c1cncc(Br)c1` here?
Its Potency is inconclusive [inhibitor, single point].

— PubChem BioAssay AID686978 (National Center for Advancing Translational Sciences (NCATS), 2013)
